Variants at the background level are over-represented here.
B1: glmS ribozyme (parent)
chain: AUAAAAGCGCCAGAACUACAGAAAUGUAGUUGACGAGGAGGAGGUUUAUCGAAUUUUCGGCGGAUGCCUCCAAA

Key:
Conditions in all cases: with glucosamine-6-phosphate
[1] = variants of: B1; assay: self-cleavage kobs at 40 uM GlcN6P; higher = faster cleavage; RNA array
In short: (§1)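 Tracking of barcoded ribozyme variants used a hybridised Cy3 probe at 37 °C, after in situ transcription by E. coli RNA polymerase on sequenced MiSeq chips. The flowed solution held 40 μM to 10 mM glucosamine-6-phosphate in HEPES/KCl/Mg(OAc)2 buffer, and imaging ran over ~14 h. kobs was taken from exponential decay fits of normalised per-tile medians, and kcat and KM from weighted Michaelis–Menten fits.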

[2] = variants of: B1; assay: self-cleavage kobs at 640 uM GlcN6P; higher = faster cleavage; RNA array
In short: as §1

[3] = variants of: B1; assay: self-cleavage kobs at 160 uM GlcN6P; higher = faster cleavage; RNA array
In short: as §1

[4] = variants of: B1; assay: self-cleavage kobs at 2500 uM GlcN6P; higher = faster cleavage; RNA array
In short: as §1

[5] = variants of: B1; assay: self-cleavage kobs at 10000 uM GlcN6P; higher = faster cleavage; RNA array
In short: as §1

| Variant | self-cleavage kobs at 40 uM GlcN6P [1] [s⁻¹] | self-cleavage kobs at 640 uM GlcN6P [2] [s⁻¹] | self-cleavage kobs at 160 uM GlcN6P [3] [s⁻¹] | self-cleavage kobs at 2500 uM GlcN6P [4] [s⁻¹] | self-cleavage kobs at 10000 uM GlcN6P [5] [s⁻¹] |
| --- | --- | --- | --- | --- | --- |
| AUAAAAGCACCAGAACUACAGAAAUGUAGUUGACGAGGACGAGGUUUAUCGAAUUUUCGGCGGAUGCCUCCAAA [G9A G40C] | < 1e-05 |  |  |  |  |
| AUAAAAGCACCAGAACUACAGAAAUGUAGUUGACGAGGAGGAAGUUUAUCGAUUUUUCGGCGGAUGCCUCCAAA [G9A G43A A53U] | < 1e-05 |  |  |  |  |
| AUAAAAGCACCAGAACUACAGAAAUGUAGUUGACGAGGAGGACGUUUAUCGAAUUUUCGGCGGAUGCCUCAAAA [G9A G43C C71A] | < 1e-05 | < 1e-05 | < 1e-05 |  |  |
| AUAAAAGCACCAGAACUACAGAAAUGUAGUUGACGAGGAGGAGGUUUAUCAAAUUUUCGGCGGAUGCCUCCAAA [G9A G51A] | < 1e-05 |  |  |  |  |
| AUAAAAGCACCAGAACUACAGAAAUGUAGUUGACGAGGAGGAGGUUUAUCGAAUUUUCGCCGGAUGCCUCCAAA [G9A G60C] | < 1e-05 | < 1e-05 | < 1e-05 | < 1e-05 |  |
| AUAAAAGCACCAGAACUACAGAAAUGUAGUUGACGAGGAGGAGGUUUAUCGAAUUUUCGUCGGAUGCCUCCAAA [G9A G60U] | < 1e-05 | < 1e-05 |  | < 1e-05 | < 1e-05 |
| AUAAAAGCACCAGAACUACAGAAAUGUAGCCGACGAGGAGGAGGUUUAUAGAAUUUUCGGCGGAUGCCUCCAAA [G9A U30C U31C C50A] | < 1e-05 | < 1e-05 | < 1e-05 |  | < 1e-05 |
| AUAAAAGCACCAGAACUACAGAAAUGUAGUUGACGAGGAGGAGGUCUAUCGAAUUUUCGGCGGAUGCCUCCAAA [G9A U46C] | < 1e-05 |  | < 1e-05 | < 1e-05 | < 1e-05 |
| AUAAAAGCACCAGAACUACAGAAAUGUAGUUGACGAGGAGGAGGUUUAGCGAAUUUUCGGCGGAUGCCUCCAAA [G9A U49G] | < 1e-05 | < 1e-05 | < 1e-05 | < 1e-05 |  |
| AUAAAAGCCCCCGGGCUACAGAAAUGUAGUUGACGAGGAGGCGGUUUAUCGAAUUUUCGGCUGAUGCCUCCAAA [G9C A12C A14G A15G A42C G62U] | < 1e-05 | < 1e-05 |  |  |  |
| AUAAAAGCCCCUGAACUACAGAAAUGUAGUUGACGAGGAGGAGGUUUAUCGGACUUUCGGCGGAUGUCUCCAAA [G9C A12U A52G U54C C67U] | < 1e-05 |  |  |  |  |
| AUAAAAGCCCCAGAACUACAGAAAUGUAGUUGGCGAGGAGGAGGUUUAUCGAAUUUUCGGCGGAUGCCUCCAAA [G9C A33G] | < 1e-05 |  | < 1e-05 | < 1e-05 |  |
| AUAAAAGCCCCAGAACUACAGAAAUGUAGUUGUCGAGGAGGAGUUUUAUCGAAUUUUCGGCGGAUGCCUCCAAA [G9C A33U G44U] | < 1e-05 | < 1e-05 | < 1e-05 | < 1e-05 | < 1e-05 |
| AUAAAAGCCCCAGAACUACAGAAAUGUAGUUGACGUGGAGUAGGUUUAUCGAAUUUUCGGCGGAUGCCUCCAAA [G9C A36U G41U] | < 1e-05 |  |  |  | < 1e-05 |
| AUAAAAGCCCCAGAACUACAGAAAUGUAGUUGACGAGGAGGAGGUUUAUCGACUUUUCGGCGGAUGCCUCCAAA [G9C A53C] | < 1e-05 | < 1e-05 | < 1e-05 |  | < 1e-05 |
| AUAAAAGCCCGUGAACUACAGAAAUGUAGUUGACGAGGAAGAGGUUUAUCGAAUUUUCGGCGGAUGCCUCCAAA [G9C C11G A12U G40A] | < 1e-05 |  |  |  |  |
| AUAAAAGCCCCAGAAUUACAGAAAUGUAGUUGACGAGGAGGAGGUUUAACGAAUUUUCGGUGGAUGCCUCCAAA [G9C C16U U49A C61U] | < 1e-05 |  |  |  | < 1e-05 |
| AUAAAAGCCCCAGAACUACAGAAAUGUAGUUGAAGAGGAGGUAGUUUAUCGAAUUUUCGGCGGAUGCCUCCAAA [G9C C34A A42U G43A] | < 1e-05 |  |  |  |  |
| AUAAAAGCCCCAGAACUACAGAAAUGUAGUUGACGAGGAGGAGGUUUAUCGAAUUUUCGGCGGAUGCGUCCAAA [G9C C68G] | < 1e-05 | < 1e-05 | < 1e-05 | < 1e-05 | < 1e-05 |
| AUAAAAGCCCCAAAACUACAGAAAUGUAGUUGACGAGGAGGAGGUUUUUCGAAUUUUCGGCGGAUGCCUCCAAA [G9C G13A A48U] | < 1e-05 |  |  | < 1e-05 |  |
| AUAAAAGCCCCAGAACUACAGAAAUGUAAUUGACGAGGAGGAGGUUUAUCGAAUUUUCGGCGGAUGCCUCCAAA [G9C G29A] | < 1e-05 | < 1e-05 | < 1e-05 | < 1e-05 | < 1e-05 |
| AUAAAAGCCCCAGAACUACAGAAAUGUAGUUGACGAGGAUGAGGUUUAUCGAAUUAUGGGCGGAUGCCUCCAAA [G9C G40U U56A C58G] | < 1e-05 |  |  |  | < 1e-05 |
| AUAAAAGCCCCAGAACUACAGAAAUGUAGUUGACGAGGAGGAAUUUUAUCGAAUUUUCGGCGGAUGCCUGCAAA [G9C G43A G44U C70G] | < 1e-05 |  |  |  | < 1e-05 |
| AUAAAAGCCCCAGAACUACAGAAAUGUAGUUGACGAGGAGGAUUUUUAUCGAAUUUUAGGCGGAUGCCUCAAAA [G9C G43U G44U C58A C71A] | < 1e-05 |  |  |  |  |
| AUAAAAGCCCCAGAACUACAGAAAUGUAGUUGACGAGGAGGAGGUUUAUCGAAUUUUCGUCGGAUGCCUCCAAA [G9C G60U] | < 1e-05 |  | < 1e-05 | < 1e-05 | < 1e-05 |
| AUAAAAGCCCCAGAACUACAGAAAUGUAGUUGACGAGGAGGAGGUUUAUCGAAUUUUCGGCGGAUACCUACAAA [G9C G66A C70A] | < 1e-05 |  | < 1e-05 | < 1e-05 |  |
| AUAAAAGCCCCAGAACUACAGAAAUGUAGUUGACGAGGAGGAGGUUAAUCGAAUUUUCGGCGGAUGCCUCCAAA [G9C U47A] | < 1e-05 |  |  | < 1e-05 |  |
| AUAAAAGCCCCAGAACUACAGAAAUGUAGUUGACGAGGAGGAGGUUGAUCGAAUUUUCGGCGGAUGCCUCCAAA [G9C U47G] | < 1e-05 |  |  |  | < 1e-05 |

From the supplement of paper PMC7125110
